Results published in article PMC10320511.
No constants are given. Whether binding was seen depends on the method and setting. Binding seen in cells or lysates may run through a third protein. Some results given as binding are weak or reduced against the parent protein; the word gives no strength. Where a sequence is shown, tags or fusion partners need not be part of it.

Experiments:
Test in all cases: co-IP; V5H6-tagged FRQ (wild type or mutant) pulled down with V5 agarose from Neurospora lysate (cultures in the light, 25 °C); 50 mM Hepes pH 7.4, 137 mM NaCl, 10% glycerol, 0.4% NP-40; 4 °C, 2 h; Western blot with FRQ, FRH, WC-1 and WC-2 antibodies
[1] = biological target: T1, FRQ 311–628, V5H6-tagged (Neurospora crassa) (UniProt P19970)
T1 sequence: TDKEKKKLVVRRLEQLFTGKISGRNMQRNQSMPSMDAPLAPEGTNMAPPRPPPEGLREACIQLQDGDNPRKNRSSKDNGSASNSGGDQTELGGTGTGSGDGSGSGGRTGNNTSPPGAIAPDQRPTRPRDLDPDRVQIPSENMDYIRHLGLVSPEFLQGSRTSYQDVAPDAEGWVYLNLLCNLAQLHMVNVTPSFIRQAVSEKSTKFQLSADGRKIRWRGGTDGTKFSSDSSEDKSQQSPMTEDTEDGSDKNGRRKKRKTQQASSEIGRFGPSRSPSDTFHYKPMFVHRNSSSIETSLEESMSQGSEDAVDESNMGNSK

[2] = biological target: T2, FRQ D660E, V5H6-tagged (Neurospora crassa) (UniProt P19970)
T2 sequence: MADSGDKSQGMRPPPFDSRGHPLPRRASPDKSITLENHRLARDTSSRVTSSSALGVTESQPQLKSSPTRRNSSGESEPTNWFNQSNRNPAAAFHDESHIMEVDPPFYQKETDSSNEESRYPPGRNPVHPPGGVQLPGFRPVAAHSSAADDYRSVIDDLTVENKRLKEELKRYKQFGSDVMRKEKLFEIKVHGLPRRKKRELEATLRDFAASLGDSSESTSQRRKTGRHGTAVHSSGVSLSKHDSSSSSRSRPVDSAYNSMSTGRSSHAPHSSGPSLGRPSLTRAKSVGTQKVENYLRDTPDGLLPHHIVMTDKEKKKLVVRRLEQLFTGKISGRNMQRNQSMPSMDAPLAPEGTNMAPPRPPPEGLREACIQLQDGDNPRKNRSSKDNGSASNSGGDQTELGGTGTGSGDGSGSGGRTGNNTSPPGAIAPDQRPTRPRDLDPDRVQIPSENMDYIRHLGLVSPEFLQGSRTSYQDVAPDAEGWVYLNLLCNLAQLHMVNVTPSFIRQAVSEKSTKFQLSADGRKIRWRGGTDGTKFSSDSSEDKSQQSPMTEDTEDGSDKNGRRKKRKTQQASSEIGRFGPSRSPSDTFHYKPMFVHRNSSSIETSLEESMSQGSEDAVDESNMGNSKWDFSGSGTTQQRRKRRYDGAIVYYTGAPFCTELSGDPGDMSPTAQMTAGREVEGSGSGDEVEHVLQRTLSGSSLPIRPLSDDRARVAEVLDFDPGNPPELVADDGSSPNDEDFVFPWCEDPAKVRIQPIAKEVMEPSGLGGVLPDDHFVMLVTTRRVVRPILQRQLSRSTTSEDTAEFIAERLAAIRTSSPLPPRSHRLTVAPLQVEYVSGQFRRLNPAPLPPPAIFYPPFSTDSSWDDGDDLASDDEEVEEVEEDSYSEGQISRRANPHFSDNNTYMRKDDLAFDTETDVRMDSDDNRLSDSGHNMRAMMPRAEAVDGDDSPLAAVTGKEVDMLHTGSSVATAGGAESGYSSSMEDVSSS

[3] = biological target: T3, FRQ Δ564–603, V5H6-tagged (Neurospora crassa) (UniProt P19970)
T3 sequence: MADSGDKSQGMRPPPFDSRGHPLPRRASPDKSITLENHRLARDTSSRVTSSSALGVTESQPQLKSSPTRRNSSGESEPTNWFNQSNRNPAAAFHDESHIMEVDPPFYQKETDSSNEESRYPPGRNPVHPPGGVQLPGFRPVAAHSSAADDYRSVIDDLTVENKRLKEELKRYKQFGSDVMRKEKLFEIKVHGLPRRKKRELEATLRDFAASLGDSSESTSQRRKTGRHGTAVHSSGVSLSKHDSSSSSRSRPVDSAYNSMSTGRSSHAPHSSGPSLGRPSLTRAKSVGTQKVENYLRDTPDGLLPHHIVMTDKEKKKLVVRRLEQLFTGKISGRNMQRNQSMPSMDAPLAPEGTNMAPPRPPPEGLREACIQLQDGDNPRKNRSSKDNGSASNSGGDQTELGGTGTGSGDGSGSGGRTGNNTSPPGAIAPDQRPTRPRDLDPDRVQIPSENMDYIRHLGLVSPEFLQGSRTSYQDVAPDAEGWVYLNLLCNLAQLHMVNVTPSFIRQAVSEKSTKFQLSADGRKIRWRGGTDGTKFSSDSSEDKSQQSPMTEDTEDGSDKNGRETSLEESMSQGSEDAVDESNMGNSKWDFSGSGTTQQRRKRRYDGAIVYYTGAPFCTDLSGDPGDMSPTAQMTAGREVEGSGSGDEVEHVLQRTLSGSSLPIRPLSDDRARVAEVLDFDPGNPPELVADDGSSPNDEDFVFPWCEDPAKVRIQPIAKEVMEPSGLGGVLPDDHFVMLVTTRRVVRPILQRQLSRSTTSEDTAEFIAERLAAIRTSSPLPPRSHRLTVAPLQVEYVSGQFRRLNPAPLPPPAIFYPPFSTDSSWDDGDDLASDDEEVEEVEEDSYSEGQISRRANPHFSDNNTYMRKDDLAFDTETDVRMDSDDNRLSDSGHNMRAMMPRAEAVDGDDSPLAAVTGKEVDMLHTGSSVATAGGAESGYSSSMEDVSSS

binding [1]: no binding | binding [2]: no binding | binding [3]: binds weakly
B1: White Collar-2 (WC-2) (protein, UniProt P78714 1-530)
chain: MSHGQPPPGSSMYGFGAMGMGSGMGSGMGSGMGTGMGTGMGTGMSASQMTSDPQDMMSLLDTSVFPGFDGMSMSLDVGDSMSNPFTPVSVPPPLPAGNAGPSHVGVCGGHGAPDQLFSPDDLIATSMSSAGPMIATPTTTTSGPSGGPSSGGGSTLTEFTKRRNWPAKVVEELQDWEHILDANGRIKHVSPSVEPLTGYKPPEIIDLFLRDLIHPDDVGVFTAELNEAIATGSQLRLFYRFRKKDGNWTIFETVGHAHIAAAKFAPNPQNQSPFCQAVFMMARPYPTKNAGLLDSFLEHKIENERLKRRIAELRREEQEEQEESHRTWRMSQEGRSDVTPSDDTATQMGMTPFYIPMNAQADVMMPPPSQPASSLNIALTRENLEGIAGSRPDSIREKMLRYEGNHADTIEMLTGLKYQEGERSHGITTGNASPTLIKGDAGIAIPLDRDPRTGEKKKKIKVAEEYVCTDCGTLDSPEWRKGPSGPKTLCNACGLRWAKKEKKKNANNNNNGGGIGGHNDIHTPMGDHMG
